In patent publication US20200247856A1 (SHIRE HUMAN GENETIC THERAPIES, published 2020):

T1: BMP-9 (R&D Systems, Catalogue number 3209-BP-010CF) (UniProt Q9UK05 320-429)
T1 construct: Bought protein; also called bone morphogenic protein-9
T1 sequence (looked up): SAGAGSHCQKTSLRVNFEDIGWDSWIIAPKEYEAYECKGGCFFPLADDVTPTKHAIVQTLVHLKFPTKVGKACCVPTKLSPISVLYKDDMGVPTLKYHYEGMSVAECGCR

T2: Myostatin (R&D Systems, Catalogue number 788-G8-010/CF) (UniProt O14793 267-375)
T2 sequence (looked up): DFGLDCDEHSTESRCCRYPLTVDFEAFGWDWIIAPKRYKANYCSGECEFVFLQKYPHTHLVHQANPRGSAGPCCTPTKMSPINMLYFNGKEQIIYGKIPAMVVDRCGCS

T3: Activin A (R&D Systems, Catalog number 338-AC-050 CF) (UniProt P08476 311-426)
T3 sequence (looked up): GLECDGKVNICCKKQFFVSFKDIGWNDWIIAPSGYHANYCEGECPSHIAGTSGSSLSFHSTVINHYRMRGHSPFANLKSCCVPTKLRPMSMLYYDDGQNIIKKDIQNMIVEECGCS

T4: BMP-10 (R&D Systems, Catalogue number 2926-BP-025CF) (UniProt O95393 317-424)
T4 construct: Bought protein; also called bone morphogenic protein-10
T4 sequence (looked up): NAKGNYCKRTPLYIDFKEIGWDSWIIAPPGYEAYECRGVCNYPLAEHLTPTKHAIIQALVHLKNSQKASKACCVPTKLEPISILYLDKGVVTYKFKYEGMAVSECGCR

B1: FS315C66A/K75N/C77T-hFcLALA (Fc fusion)
chain: GNCWLRQAKNGRCQVLYKTELSKEECCSTGRLSTSWTEEDVNDNTLFKWMIFNGGAPNCIPCKETAENVDCGPGNKTRMNKKNKPRCVCAPDCSNITWKGPVCGLDGKTYRNECALLKARCKEQPELEVQYQGRCKKTCRDVFCPGSSTCVVDQTNNAYCVTCNRICPEPASSEQYLCGNDGVTYSSACHLRKATCLLGRSIGLAYEGKCIKAKSCEDIQCTGGKKCLWDFKVGRGRCSLCDELCPDSKSDEPVCASDNATYASECAMKEAACSSGVLLEVKHSGSCNSISEDTEEEEEDEDQDYSFPISSILEW[no letters for human IgG1 Fc with changes]
notes: Hyperglycosylation variant
B2: FS315C66S/K75N/C77T-hFcLALA (Fc fusion)
chain: GNCWLRQAKNGRCQVLYKTELSKEECCSTGRLSTSWTEEDVNDNTLFKWMIFNGGAPNCIPCKETSENVDCGPGNKTRMNKKNKPRCVCAPDCSNITWKGPVCGLDGKTYRNECALLKARCKEQPELEVQYQGRCKKTCRDVFCPGSSTCVVDQTNNAYCVTCNRICPEPASSEQYLCGNDGVTYSSACHLRKATCLLGRSIGLAYEGKCIKAKSCEDIQCTGGKKCLWDFKVGRGRCSLCDELCPDSKSDEPVCASDNATYASECAMKEAACSSGVLLEVKHSGSCNSISEDTEEEEEDEDQDYSFPISSILEW[no letters for human IgG1 Fc with changes]
notes: Hyperglycosylation variant
B3: FS315K(81,82)E-hFcLALA (Fc fusion)
chain: GNCWLRQAKNGRCQVLYKTELSKEECCSTGRLSTSWTEEDVNDNTLFKWMIFNGGAPNCIPCKETCENVDCGPGKKCRMNEENKPRCVCAPDCSNITWKGPVCGLDGKTYRNECALLKARCKEQPELEVQYQGRCKKTCRDVFCPGSSTCVVDQTNNAYCVTCNRICPEPASSEQYLCGNDGVTYSSACHLRKATCLLGRSIGLAYEGKCIKAKSCEDIQCTGGKKCLWDFKVGRGRCSLCDELCPDSKSDEPVCASDNATYASECAMKEAACSSGVLLEVKHSGSCNSISEDTEEEEEDEDQDYSFPISSILEW[no letters for human IgG1 Fc with changes]
B4: FS315G74N/K76T/P85T-hFcLALA (Fc fusion)
chain: GNCWLRQAKNGRCQVLYKTELSKEECCSTGRLSTSWTEEDVNDNTLFKWMIFNGGAPNCIPCKETCENVDCGPNKTCRMNKKNKTRCVCAPDCSNITWKGPVCGLDGKTYRNECALLKARCKEQPELEVQYQGRCKKTCRDVFCPGSSTCVVDQTNNAYCVTCNRICPEPASSEQYLCGNDGVTYSSACHLRKATCLLGRSIGLAYEGKCIKAKSCEDIQCTGGKKCLWDFKVGRGRCSLCDELCPDSKSDEPVCASDNATYASECAMKEAACSSGVLLEVKHSGSCNSISEDTEEEEEDEDQDYSFPISSILEW[no letters for human IgG1 Fc with changes]
B5: FS315R78E/K(82,84)E-hFcLALA (Fc fusion)
chain: GNCWLRQAKNGRCQVLYKTELSKEECCSTGRLSTSWTEEDVNDNTLFKWMIFNGGAPNCIPCKETCENVDCGPGKKCEMNKENEPRCVCAPDCSNITWKGPVCGLDGKTYRNECALLKARCKEQPELEVQYQGRCKKTCRDVFCPGSSTCVVDQTNNAYCVTCNRICPEPASSEQYLCGNDGVTYSSACHLRKATCLLGRSIGLAYEGKCIKAKSCEDIQCTGGKKCLWDFKVGRGRCSLCDELCPDSKSDEPVCASDNATYASECAMKEAACSSGVLLEVKHSGSCNSISEDTEEEEEDEDQDYSFPISSILEW[no letters for human IgG1 Fc with changes]
B6: FS315K(82,84)E-hFcLALA (Fc fusion)
chain: GNCWLRQAKNGRCQVLYKTELSKEECCSTGRLSTSWTEEDVNDNTLFKWMIFNGGAPNCIPCKETCENVDCGPGKKCRMNKENEPRCVCAPDCSNITWKGPVCGLDGKTYRNECALLKARCKEQPELEVQYQGRCKKTCRDVFCPGSSTCVVDQTNNAYCVTCNRICPEPASSEQYLCGNDGVTYSSACHLRKATCLLGRSIGLAYEGKCIKAKSCEDIQCTGGKKCLWDFKVGRGRCSLCDELCPDSKSDEPVCASDNATYASECAMKEAACSSGVLLEVKHSGSCNSISEDTEEEEEDEDQDYSFPISSILEW[no letters for human IgG1 Fc with changes]
B7: FS315K75N/C77T/K82T-hFcLALA (Fc fusion)
chain: GNCWLRQAKNGRCQVLYKTELSKEECCSTGRLSTSWTEEDVNDNTLFKWMIFNGGAPNCIPCKETCENVDCGPGNKTRMNKTNKPRCVCAPDCSNITWKGPVCGLDGKTYRNECALLKARCKEQPELEVQYQGRCKKTCRDVFCPGSSTCVVDQTNNAYCVTCNRICPEPASSEQYLCGNDGVTYSSACHLRKATCLLGRSIGLAYEGKCIKAKSCEDIQCTGGKKCLWDFKVGRGRCSLCDELCPDSKSDEPVCASDNATYASECAMKEAACSSGVLLEVKHSGSCNSISEDTEEEEEDEDQDYSFPISSILEW[no letters for human IgG1 Fc with changes]
notes: Hyperglycosylation variant
B8: FS315K(76,81,82)E/V88E-hFcLALA (Fc fusion)
chain: GNCWLRQAKNGRCQVLYKTELSKEECCSTGRLSTSWTEEDVNDNTLFKWMIFNGGAPNCIPCKETCENVDCGPGKECRMNEENKPRCECAPDCSNITWKGPVCGLDGKTYRNECALLKARCKEQPELEVQYQGRCKKTCRDVFCPGSSTCVVDQTNNAYCVTCNRICPEPASSEQYLCGNDGVTYSSACHLRKATCLLGRSIGLAYEGKCIKAKSCEDIQCTGGKKCLWDFKVGRGRCSLCDELCPDSKSDEPVCASDNATYASECAMKEAACSSGVLLEVKHSGSCNSISEDTEEEEEDEDQDYSFPISSILEW[no letters for human IgG1 Fc with changes]
B9: FS315R78E/K82E-hFcLALA (Fc fusion)
chain: GNCWLRQAKNGRCQVLYKTELSKEECCSTGRLSTSWTEEDVNDNTLFKWMIFNGGAPNCIPCKETCENVDCGPGKKCEMNKENKPRCVCAPDCSNITWKGPVCGLDGKTYRNECALLKARCKEQPELEVQYQGRCKKTCRDVFCPGSSTCVVDQTNNAYCVTCNRICPEPASSEQYLCGNDGVTYSSACHLRKATCLLGRSIGLAYEGKCIKAKSCEDIQCTGGKKCLWDFKVGRGRCSLCDELCPDSKSDEPVCASDNATYASECAMKEAACSSGVLLEVKHSGSCNSISEDTEEEEEDEDQDYSFPISSILEW[no letters for human IgG1 Fc with changes]
B10: FS315K82E-hFcLALA (Fc fusion)
chain: GNCWLRQAKNGRCQVLYKTELSKEECCSTGRLSTSWTEEDVNDNTLFKWMIFNGGAPNCIPCKETCENVDCGPGKKCRMNKENKPRCVCAPDCSNITWKGPVCGLDGKTYRNECALLKARCKEQPELEVQYQGRCKKTCRDVFCPGSSTCVVDQTNNAYCVTCNRICPEPASSEQYLCGNDGVTYSSACHLRKATCLLGRSIGLAYEGKCIKAKSCEDIQCTGGKKCLWDFKVGRGRCSLCDELCPDSKSDEPVCASDNATYASECAMKEAACSSGVLLEVKHSGSCNSISEDTEEEEEDEDQDYSFPISSILEW[no letters for human IgG1 Fc with changes]
B11: FS315K(76,81,82)A-hFcLALA (Fc fusion)
chain: GNCWLRQAKNGRCQVLYKTELSKEECCSTGRLSTSWTEEDVNDNTLFKWMIFNGGAPNCIPCKETCENVDCGPGKACRMNAANKPRCVCAPDCSNITWKGPVCGLDGKTYRNECALLKARCKEQPELEVQYQGRCKKTCRDVFCPGSSTCVVDQTNNAYCVTCNRICPEPASSEQYLCGNDGVTYSSACHLRKATCLLGRSIGLAYEGKCIKAKSCEDIQCTGGKKCLWDFKVGRGRCSLCDELCPDSKSDEPVCASDNATYASECAMKEAACSSGVLLEVKHSGSCNSISEDTEEEEEDEDQDYSFPISSILEW[no letters for human IgG1 Fc with changes]
B12: FS315K(76,81,82)E-hFcLALA (Fc fusion)
chain: GNCWLRQAKNGRCQVLYKTELSKEECCSTGRLSTSWTEEDVNDNTLFKWMIFNGGAPNCIPCKETCENVDCGPGKECRMNEENKPRCVCAPDCSNITWKGPVCGLDGKTYRNECALLKARCKEQPELEVQYQGRCKKTCRDVFCPGSSTCVVDQTNNAYCVTCNRICPEPASSEQYLCGNDGVTYSSACHLRKATCLLGRSIGLAYEGKCIKAKSCEDIQCTGGKKCLWDFKVGRGRCSLCDELCPDSKSDEPVCASDNATYASECAMKEAACSSGVLLEVKHSGSCNSISEDTEEEEEDEDQDYSFPISSILEW[no letters for human IgG1 Fc with changes]

These binders were tested against T1, BMP-9 (R&D Systems, Catalogue number …) (assay: BIAcore SPR; fusion captured on anti-human Fc; BMP-9 as analyte).

B1: no binding (tested: 25-0.190 nM).
B2: no binding (tested: 25-0.190 nM).

The binders below were run against T2, Myostatin (R&D Systems, Catalogue …) (assay: cell-based or functional assay).

First: B3
Second: B4
The “Myostatin IC50 (nM), luciferase gene reporter assay (Smad3, A204 cells)” value (“Myostatin IC50 (nM)” for short) of the first is 1.7-fold lower: 0.6 nM for the first, 1 nM for the second.

B5 and B6 are within 1.5-fold of each other in “Myostatin IC50 (nM)” value: 0.5 nM for the first, 0.7 nM for the second.

Going from B2 to B7, the “Myostatin IC50 (nM)” value falls from 1.5 nM to 0.7 nM (2.1-fold).

With B8 the “Myostatin IC50 (nM)” value was 0.6 nM.

What follows are binders tested against T3, Activin A (R&D Systems, Catalog number …) (assay: cell-based or functional assay).

B3 and B4 are within 1.5-fold of each other in “Activin A IC50 (nM), luciferase gene reporter assay (Smad3, A204 cells)” value (shortened to “Activin A IC50 (nM)”): 1 nM for the first, 1.3 nM for the second.

Going from B5 to B9, the “Activin A IC50 (nM)” value rises from 0.6 nM to 1 nM (1.7-fold).

First: B6
Second: B2
The “Activin A IC50 (nM)” value of the first is 1.9-fold lower: 1.1 nM for the first, 2.1 nM for the second.

B10 and B11 are within 1.5-fold of each other in “Activin A IC50 (nM)” value: 0.6 nM for the first, 0.7 nM for the second.

Going from B7 to B8, the “Activin A IC50 (nM)” value falls from 1.1 nM to 0.6 nM (1.8-fold).

In the case of B12, the “Activin A IC50 (nM)” value is reported as 0.7 nM.

The binders below were run against T4, BMP-10 (R&D Systems, Catalogue number …) (assay: BIAcore SPR; fusion captured on anti-human Fc; BMP-10 as analyte).

B1: no binding (tested: 25-0.190 nM).
B2: no binding (tested: 25-0.190 nM).
B7: no binding (tested: 25-0.190 nM).

The binders below were run against T2, Myostatin (R&D Systems, Catalogue …) (assay: BIAcore SPR; fusion captured on anti-human Fc; myostatin as analyte (5-0.31 nM)).

Compared with B1, B2 is 3.8-fold lower in Kd: 24.4 pM for the first, 6.4 pM for the second.

Work on B7 yielded a Kd of 40.3 pM.
